{
  "source": "paper PMC6611761",
  "about": "“A novel motif in the proximal C-terminus of Pannexin 1 regulates cell surface localization” (Scientific Reports, 2019)",
  "proteins": {"B1": {"name": "Panx1-EGFP (mouse Pannexin 1, full length, EGFP-tagged) (natural protein)", "chain": "MAIAHLATEYVFSDFLLKEPTEPKFKGLRLELAVDKMVTCIAVGLPLLLISLAFAQEISIGTQISCFSPSSFSWRQAAFVDSYCWAAVQQKSSLQSESGNLPLWLHKFFPYILLLFAILLYLPALFWRFSAAPHLCSDLKFIMEELDKVYNRAIKAAKSARDLDLRDGPGPPGVTENVGQSLWEISESHFKYPIVEQYLKTKKNSSHLIMKYISCRLVTFVVILLACIYLSYYFSLSSLSDEFLCSIKSGVLKNDSTIPDRFQCKLIAVGIFQLLSLINLIVYALLIPVVVYTFFIPF[about 120 residues left out]", "notes": "Pannexin 1 (Panx1), mouse, NCBI NP_062355.2, full length; The vector pEGFP-N1 is named for the deletion mutants and places EGFP after the insert, so the tag is probably C-terminal; The protein is N-glycosylated (Gly0, Gly1, Gly2 species); also called full length Panx1-EGFP; wildtype Panx1; source: HEK293T, transfected (PEI), on cells, then in lysate"}},
  "target": "the molecule itself",
  "assay": "cross-linking; intact transfected HEK293T cells, 20 μg/mL cycloheximide for 8 h beforehand; 3 mM cell-impermeable BS3 in crosslinking buffer (20 mM PBS, 1 mM CaCl2, 0.5 mM MgCl2, pH 8) for 30 min on ice; lysates on 4-20% gradient SDS-PAGE, Western blot for GFP; shows surface-localized oligomers",
  "data": [
    {"protein": "B1", "values": [
      {"measurement": "stoichiometry N", "result": 6}
    ]}
  ]
}
